Experimental data reported in publication PMC4336329 (PLoS ONE, 2015).
The campaign covered roughly 310,000 compounds. About 14,000 (4.5%) showed an effect of 50% or more. Effects have a minus sign here. This is one part of the list.

These molecules were tested against human ether-à-go-go-related gene (hERG) potassium channel (human, UniProt Q12809) (assay: primary screen, population patch clamp on CHO cells stably expressing hERG).
Method: Briefly, Chinese hamster ovary (CHO) cells stably expressing the hERG channel were dislodged from tissue culture flasks and dispensed into PPC plates. […] During the recording, background leak currents were estimated by a 100 ms step to -80 mV from an initial holding potential of -70 mV and subtracted from the subsequent current measurement. The campaign was conducted in two phases using slight differences in recording protocol. In the first phase, the initial voltage pulse used a 100 ms step to -30 mV from a holding potential of -70 mV, a 2 s conditioning step to +25 mV, and a 2 s test step to -30 mV. During the second phase of the screen, the potential during the conditioning step was raised to +45 mV. In both phases of the campaign, a secondary voltage pulse was applied using the same parameters as the second phase initial pulse. The initial and secondary pulses were applied in the absence of compound, and upon application of 1 μM and 10 μM test concentrations. […]
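Also: peak tail current of the secondary pulse compared with the same well before compound.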

Sequence of human ether-à-go-go-related gene (hERG) potassium channel (Q12809 whole entry, looked up): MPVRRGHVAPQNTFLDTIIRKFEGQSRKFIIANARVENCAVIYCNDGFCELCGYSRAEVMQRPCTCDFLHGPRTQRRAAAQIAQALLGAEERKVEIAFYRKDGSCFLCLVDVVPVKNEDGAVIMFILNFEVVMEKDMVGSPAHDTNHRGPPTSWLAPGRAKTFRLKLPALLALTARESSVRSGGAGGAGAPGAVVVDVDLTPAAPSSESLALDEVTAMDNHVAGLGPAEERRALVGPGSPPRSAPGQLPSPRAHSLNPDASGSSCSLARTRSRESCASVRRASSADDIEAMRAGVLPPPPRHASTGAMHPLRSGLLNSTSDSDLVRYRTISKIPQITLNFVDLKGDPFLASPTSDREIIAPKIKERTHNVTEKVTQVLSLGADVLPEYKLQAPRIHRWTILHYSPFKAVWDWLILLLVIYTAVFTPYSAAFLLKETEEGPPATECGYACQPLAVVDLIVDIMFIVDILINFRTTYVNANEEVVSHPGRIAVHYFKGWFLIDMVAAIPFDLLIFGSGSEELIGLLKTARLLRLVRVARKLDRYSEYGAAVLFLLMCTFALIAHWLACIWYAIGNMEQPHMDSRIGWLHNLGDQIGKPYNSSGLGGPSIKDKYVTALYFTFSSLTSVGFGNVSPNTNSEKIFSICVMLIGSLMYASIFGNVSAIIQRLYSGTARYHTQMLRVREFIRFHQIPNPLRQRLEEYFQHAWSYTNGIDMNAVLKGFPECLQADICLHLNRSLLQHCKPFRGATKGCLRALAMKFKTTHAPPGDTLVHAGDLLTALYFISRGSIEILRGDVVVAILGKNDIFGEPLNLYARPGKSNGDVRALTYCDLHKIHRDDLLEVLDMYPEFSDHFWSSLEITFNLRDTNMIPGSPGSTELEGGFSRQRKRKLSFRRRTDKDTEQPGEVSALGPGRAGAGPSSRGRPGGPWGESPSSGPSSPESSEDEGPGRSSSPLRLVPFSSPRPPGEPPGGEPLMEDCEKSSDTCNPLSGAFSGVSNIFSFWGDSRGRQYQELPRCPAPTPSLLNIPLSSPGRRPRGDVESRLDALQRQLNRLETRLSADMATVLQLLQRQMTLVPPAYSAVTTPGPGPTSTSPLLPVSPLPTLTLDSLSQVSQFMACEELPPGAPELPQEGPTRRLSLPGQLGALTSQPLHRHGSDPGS

In order of rising “hERG current change (%, negative = inhibition) at 10uM” value:
1. Cc1ccc(C)c(NC(=O)c2cc(S(=O)(=O)N3CCCCC3)ccc2N2CCOCC2)c1  -62.7%
2. c1ccc(CN2CCN(CCCNc3ccc4nnc(-c5ccccc5)n4n3)CC2)cc1  -59.7%
3. CN(C)CCCN(C(=O)c1ccc(C(=O)c2ccccc2)cc1)c1nc2cc3c(cc2s1)OCO3.Cl  -56.3%
4. C=CCc1ccc(OCCCNC2CCCC2)c(OC)c1  -48.1%
5. Fc1ccccc1C1c2[nH]c3ccccc3c2CCN1CCCn1cccn1 (stereo not shown)  -46.4%
6. CCOc1cc(N2CCOCC2)c(OCC)cc1NC(=O)CN1C(=O)NC2(CCc3ccccc32)C1=O (stereo not shown)  -44.5%
7. CC(C)CCn1nnnc1C(c1ccc(F)cc1)N1CCN(C(=O)c2ccco2)CC1 (stereo not shown)  -38.1%
8. Fc1ccc(-c2nnc(N3CCOCC3)c3ccccc23)cc1F  -33.8%
9. O=C(NCC(c1ccc(F)cc1)N1CCOCC1)c1ccc(C(=O)c2ccccc2)cc1 (stereo not shown)  -31.9%
10. O/N=C(\c1ccc(Cl)cc1Cl)c1ncc(C(F)(F)F)cc1Cl  -18.8%
11. CCOc1c2ccc(C(=O)N[C@H](C)C3CCCCC3)cc2nn1CCOC  -18.2%
12. O=C(N/N=C/c1ccccn1)c1cccc(S(=O)(=O)N2CCCC2)c1  -18%
13. CC1CCN(CCNC(=O)CCS(=O)(=O)c2ccc(Br)cc2)CC1  -16.6%
14. CC1CCN(S(=O)(=O)CCNC(=O)c2ccc3c(c2)OCO3)CC1  -13.3%
15. Cc1cc(C(=O)CCl)c(C)n1CC1COc2ccccc2O1 (stereo not shown)  -13.2%
16. Fc1ccc(-c2nnc(-c3ccc(Cl)cc3Cl)o2)cc1  -12.6%
17. C=CCN1CC[C@@]2(C)c3cc(O)ccc3CC1[C@@H]2C.Cl  -11.2%
18. CCC(C)Sc1ccc([C@H]2N[C@@](C)(C(=O)OC)[C@H]3C(=O)N(C)C(=O)[C@@H]23)cc1OC.O=C(O)C(F)(F)F (stereo partly shown)  -11.1%
19. O=C(NCc1cn2ccccc2n1)c1ccc(Br)o1  -9.75%
20. COc1ccc(N(Cc2cc3ccc(C)cc3[nH]c2=O)C(C)=O)cc1  -9.53%
21. Nc1nnc(COc2ccc(Br)cc2Br)s1  -9.38%
22. C=CCn1c(COc2ccc(F)cc2)nnc1SCC(=O)NC1CC1  -8.99%
23. O=C(Nc1ccccc1N1CCOCC1)C1CCN(S(=O)(=O)c2cccc(C(F)(F)F)c2)CC1  -8.46%
24. CC(=O)c1sc(NC(=O)c2ccccc2)nc1-c1ccccc1  -7.59%
25. O=C(N/N=C/C=C\c1ccccc1)c1cnccn1  -7.49%
26. CC(=O)c1ccc(N2CCN(C(=S)Nc3cccc(Cl)c3)CC2)cc1  -6.99%
27. CSC1=NCCN1C(=O)C(C)(C)Oc1ccc(Cl)cc1  -6.98%
28. Cc1[nH]c2ccccc2c1C(=O)CN1CCC(C)CC1  -6.58%
29. CCOC(CNC(=O)c1nnc(Cc2cc(OC)c(OC)c(OC)c2)o1)OCC  -5.87%
30. Cc1ccc(N2C(=O)N(Cc3ccccc3C)c3ccccc3S2(=O)=O)cc1  -4.54%
31. O=c1[nH]c(-c2ccc(F)cc2)nc2c1sc(=S)n2-c1ccccc1  -3.58%
32. Cc1ccc(C(=O)N/C(=C\c2ccco2)C(=O)NCCN2CCOCC2)cc1C  -3.01%
33. CN(C)c1ccc(/C=N/NC(=O)CCc2c[nH]c3ccccc23)cc1  -2.72%
34. COc1ccc(N(CC(=O)NC2CCCCC2)C(=O)CNC(=O)c2ccco2)cc1  -2.3%
35. Cc1cccc(OCC(=O)Nc2ccc(N3CCN(C(=O)c4ccco4)CC3)cc2)c1C  -1.9%
36. CC(=O)c1c(C)[nH]c(C(=O)NCc2cccs2)c1C  -0.906%
37. CCc1ccc(NC(=O)CCc2nc3sc4c(c3c(=O)[nH]2)CCCC4)cc1  -0.306%
38. CCOc1ccc(S(=O)(=O)NC2CC2)cc1C(N)=O  0.752%
39. O=c1c2ccccc2oc2nc(-c3ccco3)n(-c3ccccc3)c(=O)c12  1.76%
40. Cc1noc(C)c1C(=O)Nc1nnc(-c2ccccc2)s1  1.81%
41. C/C(Cn1cnc([N+](=O)[O-])n1)=N\NC(=O)c1ccc(F)cc1  1.88%
42. O=C(O)CSCCCC(=O)Nc1ccc(Br)cc1  2.38%
43. N#CCSCC(=O)Nc1ccc(F)cc1  2.54%
44. Cc1cc[n+](CC(=O)c2ccc(NC(=O)c3ccccc3)cc2)cc1.[Br-]  2.6%
45. O=C1c2cccc3cc([N+](=O)[O-])cc(c23)C(=O)N1c1nncs1  2.83%
46. Cc1ccccc1NC(=O)NCCc1c[nH]c2ccccc12  3.2%
47. Cc1occc1C(=O)Nc1cccc(C(=O)O)c1  3.33%
48. Cc1ccc(SCC(=O)NCc2ccco2)cc1  3.39%
49. Cc1cc(C)c(NC(=O)CNC(=O)Cc2sc(C)nc2-c2ccc(F)cc2)c(C)c1  4.09%
50. CCOC(=O)c1c(C)nc2sc(C(=O)Nc3ccccc3)c(N)c2c1-c1ccc(OC)cc1  4.13%
51. O=c1c2c3c(sc2nc2n1CCC2)CCC3  4.73%
52. C=CCn1c(SCC(=O)NCC2CCCO2)nnc1C1CCCCC1 (stereo not shown)  4.97%
53. Cc1cc(C)cc(NC(=S)NC(=O)CCN2C(=O)c3ccccc3C2=O)c1  5.26%
54. O=C(O)c1cccc(NS(=O)(=O)c2ccc(NC(=O)c3ccco3)cc2)c1  5.46%
55. Clc1cccc(-c2nc3nc4ccccc4nc3n2Cc2ccccc2)c1  5.67%
56. O=C1CC(c2ccccc2)CN1C(=O)c1cncc(Br)c1 (stereo not shown)  5.75%
57. O=C(NC1CCCCC1)c1ccc2c(c1)OCCO2  6.19%
58. COc1cc(OC)c(S(=O)(=O)NCc2cccnc2)cc1NC(C)=O  6.65%
59. O=C(NC1CC1)C1=C[C@@H](C2CCCCC2)C[C@@H](OCCCCO)O1  6.7%
60. CCOC(=O)/C(C#N)=C\c1cc(C)n(-c2ccccc2)c1C  7.17%
61. COc1ccccc1-c1coc2c(CN3CCC(C)CC3)c(O)ccc2c1=O  7.18%
62. N/C(=N/O)c1nc(N2CCCCC2)nc(N2CCCCC2)n1  7.86%
63. NNC(=O)Cn1nc(Cc2ccccc2)n(N)c1=O  8.22%
64. CCOc1ccc2nc(SCC#N)c(C#N)cc2c1  8.42%
65. O=C(CCN1CCCCC1)NCNC(=O)CCN1CCCCC1  8.62%
66. COc1cccc(Nc2nc(C)nc3c2oc2ccccc23)c1  9.25%
67. CCOc1ccc(-c2nn3c(-c4ccc(F)cc4)nnc3s2)cc1  9.44%
68. COc1ccc(NC(=O)Oc2ccccc2)cc1Cl  10.5%
69. Clc1ccc(NC2(c3nnnn3C3CCCCC3)CCCCC2)cc1  10.8%
70. Cl.O=C(COc1ccc(Br)cc1)OCCN1CCCCC1  11.8%
71. O=C(Nc1cc(Cl)c(O)c(Cl)c1)C1CCCO1 (stereo not shown)  12%
72. Cc1[nH]c2ccccc2c1CC(=O)O  12.1%
73. O=S(=O)(c1ccccc1F)N1CCN(c2nc3ccccc3s2)CC1  12.1%
74. Cc1cccc(C2=N/C(=C\c3cccnc3)C(=O)O2)c1  12.2%
75. CN(C)NC(=O)C(NC(=O)c1ccccc1)C12CC3CC(CC(C3)C1)C2.Cl (stereo not shown)  12.4%
76. O=[N+]([O-])c1c2ccccc2cc2ccccc12  13.3%
77. Cc1c(NN=C(C#N)C#N)c(=O)n(-c2ccccc2)n1C  13.5%
78. COc1ccc2nc(NS(=O)(=O)c3ccc(NC(C)=O)cc3)sc2c1  14%
79. O=C(NC1CCN(S(=O)(=O)c2ccccc2)CC1)c1cccc(F)c1  15%
80. COc1ccc(CCNC(=O)Cn2cccc2C(=O)c2ccccc2)c(OC)c1  15%
81. CC(C)(C)C(=O)Nc1ccc(/C=C/C(=O)c2ccco2)cc1  15.2%
82. COc1ccccc1N1C(=O)CC(N2CCc3ccccc32)C1=O (stereo not shown)  15.8%
83. CCN(CC)CCN1C(=O)C(=O)/C(=C(/O)c2ccc(F)cc2)C1c1cccnc1 (stereo not shown)  17.7%
84. O=C(C(=O)N1CCOCC1)c1c[nH]c2ccccc12  18.3%
85. N#CCS(=O)(=O)c1ccccc1  18.7%
86. CCOC(=O)C(CCCP(=O)(c1ccccc1)c1ccccc1)(NC(C)=O)C(=O)OCC  19.9%
87. O=C(NC(=S)Nc1cc(-c2nc3ccccc3[nH]2)ccc1Cl)c1ccc2c(c1)OCO2  20%
88. O=C(NCc1cccnc1)c1ccc(NC(=O)c2ccc(Br)cc2)cc1  20.7%
89. NS(=O)(=O)c1ccc(NNC(=O)c2ccccc2C(=O)O)cc1  21.1%
90. CCCC[N+]12CCC(CC1)C(Cc1ccccc1)C2.[Br-] (stereo not shown)  21.9%
91. FC(F)(F)c1ccccc1NC(=S)NN=C1CCCCCC1  23.5%
